Data: article PMC4336329 (PLoS ONE, 2015)
The campaign covered roughly 310,000 compounds. About 2,200 (0.71%) showed an effect of 50% or more. Effects have a minus sign here. Some of the results follow.

biological target: human ether-à-go-go-related gene (hERG) potassium channel (human, UniProt Q12809); assay: primary screen, population patch clamp on CHO cells stably expressing hERG
Sequence (Q12809 whole entry, looked up): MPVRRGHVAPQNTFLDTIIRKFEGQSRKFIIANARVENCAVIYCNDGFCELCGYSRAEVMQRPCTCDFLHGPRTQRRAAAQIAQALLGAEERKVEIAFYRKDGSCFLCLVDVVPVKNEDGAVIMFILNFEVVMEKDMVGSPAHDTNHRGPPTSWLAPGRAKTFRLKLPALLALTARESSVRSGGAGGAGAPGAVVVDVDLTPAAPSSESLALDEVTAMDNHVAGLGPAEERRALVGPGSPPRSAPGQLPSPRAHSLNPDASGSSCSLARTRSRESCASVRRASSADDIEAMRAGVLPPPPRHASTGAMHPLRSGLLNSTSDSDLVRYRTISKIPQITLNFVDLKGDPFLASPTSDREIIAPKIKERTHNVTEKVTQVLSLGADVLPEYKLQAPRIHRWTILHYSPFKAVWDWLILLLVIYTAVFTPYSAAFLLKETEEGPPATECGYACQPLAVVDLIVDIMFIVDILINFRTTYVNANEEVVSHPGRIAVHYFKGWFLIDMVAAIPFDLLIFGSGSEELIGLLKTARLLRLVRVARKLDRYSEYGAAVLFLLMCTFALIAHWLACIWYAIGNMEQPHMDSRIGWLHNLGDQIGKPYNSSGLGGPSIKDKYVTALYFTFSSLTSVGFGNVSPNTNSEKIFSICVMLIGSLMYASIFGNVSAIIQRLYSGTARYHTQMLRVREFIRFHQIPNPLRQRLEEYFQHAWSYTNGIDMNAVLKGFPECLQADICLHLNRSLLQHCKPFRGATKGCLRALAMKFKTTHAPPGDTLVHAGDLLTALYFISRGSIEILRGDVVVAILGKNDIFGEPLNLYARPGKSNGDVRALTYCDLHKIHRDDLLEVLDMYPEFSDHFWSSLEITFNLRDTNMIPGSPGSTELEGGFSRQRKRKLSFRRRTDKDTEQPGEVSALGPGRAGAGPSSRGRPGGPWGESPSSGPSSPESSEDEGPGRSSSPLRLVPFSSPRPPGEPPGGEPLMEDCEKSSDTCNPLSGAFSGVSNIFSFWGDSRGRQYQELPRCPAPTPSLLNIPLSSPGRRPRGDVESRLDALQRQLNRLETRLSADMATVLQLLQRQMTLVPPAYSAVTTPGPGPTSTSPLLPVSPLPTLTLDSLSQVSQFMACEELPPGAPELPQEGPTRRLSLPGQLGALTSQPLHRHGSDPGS

SMILES	hERG current change (%, negative = inhibition) at 1uM
CCC(CC)C(=O)NCCc1cc2cc(C)c(C)cc2[nH]c1=O	13.6%
Nc1nc(=S)c2ncn([C@@H]3O[C@H](CO)[C@@H](O)[C@H]3O)c2[nH]1	13.9%
COc1cccc2cc(-c3cc(=O)oc4ccc(OC(=O)N(C)C)cc34)oc12	22.2%
Cc1ccc(-c2csc3nc[nH]c(=S)c23)cc1	12.5%
O=C(Cn1cnc2cc([N+](=O)[O-])ccc2c1=O)NCCc1ccc(F)cc1	-3.18%
COc1ccccc1NC(=S)NNC(=O)c1cc(C)nn1C	6.61%
O=C(c1ccc2nc(N3CCOCC3)sc2c1)N1CCC(Cc2ccccc2)CC1	-0.35%
O=C(CSCc1ccccc1Cl)NNC(=S)Nc1ccccc1	24.3%
O=c1cc(O)c2c(=O)[nH]c(=O)n(-c3ccccc3)c2[nH]1	12.2%
Cc1cccc(-c2nnc(SCC(=O)N3CCOCC3)o2)c1	15.5%
COC(=O)c1ccc(NC(=S)NCc2ccco2)cc1	6.7%
O=C(O)c1ccccc1C(=O)Nc1cccc([N+](=O)[O-])c1	12.7%
O=C1c2ccccc2S(=O)(=O)c2cc(N3CCN(C(=O)c4ccccc4)CC3)ccc21	-8.97%
Cc1cc(C)c(NC(=O)COC(=O)/C=C/c2cccc(C(F)(F)F)c2)c(C)c1	6.47%
O=c1c2ccccc2n(Cc2ccc(Cl)cc2)c(=O)n1Cc1ccco1	9.63%
CCCCCCSc1cccc(-c2nc3ccc(C)cn3c2NCc2ccccc2)c1.O=C(O)C(F)(F)F	10.4%
COC(=O)c1cc[n+](CC(=O)c2ccccc2)cc1.[Br-]	2.61%
CN(CCO)CCC(=O)NC1(C)CS(=O)(=O)CC1S(=O)(=O)[O-].[Na+] (stereo not drawn)	8.12%
Cc1nn2c(-c3ccc(F)cc3)ccnc2c1Cl	10.9%

SMILES	hERG current change (%, negative = inhibition) at 1uM
Cc1nn(C)c(C(=O)N/N=C/c2ccc(Br)cc2)c1Cl	12.7%
C=C(C)Cn1c(SCC(=O)N/N=C/c2c(O)ccc3ccccc23)nc2ccccc2c1=O	12.3%
CC(C)N(CC(=O)Nc1ccc(Cl)cc1C(F)(F)F)C(=O)CCl	12.5%
O=C1ON=C(c2ccccc2)/C1=C/c1ccco1	7.57%
COc1ccccc1-c1nnc2sc(-c3cc4ccccc4o3)nn12	-0.794%
CCOc1ccc(N2CC(C(=O)NCc3cccc(C)c3)CC2=O)cc1 (stereo not drawn)	-11.2%
CCCn1c(NCc2cccc(OC)c2OC)nc2ccccc21	-1.9%
Cc1c(N)cccc1-n1cccc1	8.94%
CCn1cnc2c1c(=O)n(CC(=O)NCC(F)(F)F)c(=O)n2Cc1ccccc1	-1.01%
COc1ccc(S(=O)(=O)N2CCOC23CCN(S(C)(=O)=O)CC3)cc1	5.25%
Cc1c(Cl)c([N+](=O)[O-])nn1CCCC(=O)Nc1sc2c(c1C(N)=O)CCC(C)C2 (stereo not drawn)	9.81%
CCOC(=O)N1CCC(Nc2ncnc3c2cnn3-c2ccc(C)cc2C)CC1	4.8%
CCCOc1ccc([N+](=O)[O-])c(N)c1	7%
CC(Oc1ccc(Cl)cc1)C(=O)NNC(=S)NC(=O)c1ccco1 (stereo not drawn)	6.4%
CCN1C(=O)/C(=C\c2ccc(F)cc2)N=C1SCC(=O)NCc1ccco1	7.14%
O=C(Nc1ccccc1)c1cc(S(=O)(=O)N2CCSCC2)ccc1Cl	8.24%
Cc1ccc(C)c(NC(=S)NC(C)C(c2ccccc2)N2CCN(C)CC2)c1 (stereo not drawn)	-11%
O=C(Cc1ccc(Cl)cc1Cl)Nc1ccncc1Cl	11.5%
O=C(Cn1cnc(S(=O)(=O)N2CCCC2)c1)Nc1ccc(OC(F)(F)F)cc1	16.1%

SMILES	hERG current change (%, negative = inhibition) at 1uM
Nc1ccccc1C(=O)Nc1nccs1	14.4%
CCOC(=O)C(=O)Nc1cc(C)nn1-c1nc2ccccc2[nH]1	14.5%
O=C(N/N=C/c1ccccn1)c1cc(-c2ccc(Br)cc2)nc2ccccc12	11.2%
CC(=O)Nc1ccc(NC(=O)c2cc[n+]([O-])cc2)cc1	12.1%
COc1cccc(/C=N/n2c(C3CCCCC3)n[nH]c2=S)c1O	10.6%
C/C(=N/Nc1ccc([N+](=O)[O-])cc1)c1c[nH]c2ccccc12	19.3%
COc1ccc(CN2C(=O)c3ccccc3C(/C=N\OCc3ccc(F)cc3)C2=O)cc1 (stereo not drawn)	11.9%
COc1ccc(CCCc2nnc(SCC(=O)Nc3nc(C)cs3)n2C)cc1C	-3.04%
COc1ccc(CCN2C(=O)C(C)=C(C)C2=O)cc1OC	12.8%
CC1CCCC(NC(=O)COC(=O)c2c[nH]c(=O)[nH]c2=O)C1C (stereo not drawn)	2.79%
CC(=O)Nc1nc2nc(-c3ccccc3)cc(-c3ccccc3)n2n1	15.1%
Cc1cccc(NC(=S)N2CCCN(c3ncccc3[N+](=O)[O-])CC2)c1	9.31%
CCO[C@@H]1OC(C(=O)N2CCN(Cc3ccc4c(c3)OCO4)CC2)=C[C@H](C2CCCCC2)[C@H]1CCCO	2.05%
Cn1c(SCC(=O)NC2CCCCC2)nnc1-c1cccc(N)c1	12%
CN1C(=S)SC(C)(C)C1/[N+]([O-])=C/c1cccnc1 (stereo not drawn)	11.8%
Cn1c(=O)[nH]c(=O)c2c1nc(N1CCN(C(c3ccccc3)c3ccccc3)CC1)n2CCO	10.1%
O=C(O)CCCCCNC(=O)c1ccccc1Br	14.2%
Cc1nc(C(=O)NCc2ccccc2)sc1C1(C)CC(c2ccccc2)=NO1 (stereo not drawn)	9.43%
CCCn1c(SCC(=O)N(C)CC(=O)Nc2ccc(C)cc2)n[nH]c1=O	-2.4%
